# Laboratory results as given in the supplement of paper PMC8728848.
# This is one part of the list.
# B1: CLEC-1 (Homo sapiens), Q9NZH3 (protein)
# chain: MQAKYSSTRDMLDDDGDTTMSLHSQASATTRHPEPRRTEHRAPSSTWRPVALTLLTLCLVLLIGLAAWGLLFFQYYQLSNTGQDTISQMEERLGNTSQELQSLQVQNIKLAGSLQHVAEKLCRELYNKAGAHRCSPCTEQWKWHGDNCYQFYKDSKSWEDCKYFCLSENSTMLKINKQEDLEFAASQSYSEFFYSYWTGLLRPDSGKAWLWMDGTPFTSELFHIIIDVTSPRSRDCVAILNGMIFSKDCKELKRCVCERRAGMVKPESLHVPPETLGEGD
# Tests used:
# Assay in all cases: glycan array binding signal (z-score within array); higher = stronger binding
# Settings in all cases: glycan notation: IUPAC condensed, linker removed
# Fuc(a1-2)Gal = target: Fuc(a1-2)Gal
# How it was run: (§1)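 Glycan array data came from 3228 arrays in the Consortium for Functional Glycomics database, and only arrays with an available protein sequence were kept. Glycan names were put into IUPAC-condensed notation, and columns mapping to the same glycan were averaged. The binding signal is a within-array Z-score, averaged across arrays of one protein sequence run at different concentrations or buffers and across linkers. A negative Z-score can be read as non-binding.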
# Fuc(a1-2)Gal(b1-3)GalNAc = target: Fuc(a1-2)Gal(b1-3)GalNAc
# How it was run: as §1
# [1] = target: Fuc(a1-2)Gal(b1-3)GalNAc(a1-3)[Fuc(a1-2)]Gal(b1-4)Glc
# How it was run: as §1
# [2] = target: Fuc(a1-2)Gal(b1-3)GalNAc(a1-3)[Fuc(a1-2)]Gal(b1-4)GlcNAc
# How it was run: as §1
# [3] = target: Fuc(a1-2)Gal(b1-3)GalNAc(b1-3)Gal
# How it was run: as §1
# [4] = target: Fuc(a1-2)Gal(b1-3)GalNAc(b1-3)Gal(a1-4)Gal(b1-4)Glc
# How it was run: as §1
# [5] = target: Fuc(a1-2)Gal(b1-3)GalNAc(b1-4)[Neu5Ac(a2-3)]Gal(b1-4)Glc
# How it was run: as §1
# Fuc(a1-2)Gal(b1-3)GlcNAc = target: Fuc(a1-2)Gal(b1-3)GlcNAc
# How it was run: as §1
# [6] = target: Fuc(a1-2)Gal(b1-3)GlcNAc(b1-2)Man(a1-3)[Fuc(a1-2)Gal(b1-3)GlcNAc(b1-2)Man(a1-6)]Man(b1-4)GlcNAc(b1-4)GlcNAc
# How it was run: as §1
# [7] = target: Fuc(a1-2)Gal(b1-3)GlcNAc(b1-3)Gal(b1-4)Glc
# How it was run: as §1
# [8] = target: Fuc(a1-2)Gal(b1-3)GlcNAc(b1-3)[Fuc(a1-3)[Gal(b1-4)]GlcNAc(b1-6)]Gal(b1-4)Glc
# How it was run: as §1
# [9] = target: Fuc(a1-2)Gal(b1-3)[Fuc(a1-4)]GlcNAc
# How it was run: as §1
# [10] = target: Fuc(a1-2)Gal(b1-3)[Fuc(a1-4)]GlcNAc(b1-2)Man(a1-3)[Fuc(a1-2)Gal(b1-3)[Fuc(a1-4)]GlcNAc(b1-2)Man(a1-6)]Man(b1-4)GlcNAc(b1-4)GlcNAc
# How it was run: as §1
# [11] = target: Fuc(a1-2)Gal(b1-3)[Fuc(a1-4)]GlcNAc(b1-3)[Fuc(a1-3)[Gal(b1-4)]GlcNAc(b1-6)]Gal(b1-4)Glc
# How it was run: as §1
# [12] = target: Fuc(a1-2)Gal(b1-3)[Fuc(a1-4)]GlcNAc(b1-3)[Gal(b1-4)GlcNAc(b1-6)]Gal(b1-4)Glc
# How it was run: as §1
# Fuc(a1-2)Gal(b1-4)Glc = target: Fuc(a1-2)Gal(b1-4)Glc
# How it was run: as §1
# Fuc(a1-2)Gal(b1-4)Glc6S = target: Fuc(a1-2)Gal(b1-4)Glc6S
# How it was run: as §1
# Fuc(a1-2)Gal(b1-4)GlcNAc = target: Fuc(a1-2)Gal(b1-4)GlcNAc
# How it was run: as §1
# [13] = target: Fuc(a1-2)Gal(b1-4)GlcNAc(b1-2)Man(a1-3)[Fuc(a1-2)Gal(b1-4)GlcNAc(b1-2)Man(a1-6)]Man(b1-4)GlcNAc(b1-4)GlcNAc
# How it was run: as §1
# [14] = target: Fuc(a1-2)Gal(b1-4)GlcNAc(b1-3)Gal(b1-4)GlcNAc
# How it was run: as §1
# [15] = target: Fuc(a1-2)Gal(b1-4)GlcNAc(b1-3)Gal(b1-4)GlcNAc(b1-3)Gal(b1-4)GlcNAc
# How it was run: as §1
# [16] = target: Fuc(a1-2)Gal(b1-4)GlcNAc(b1-3)GalNAc
# How it was run: as §1
# [17] = target: Fuc(a1-2)Gal(b1-4)GlcNAc6S
# How it was run: as §1
# [18] = target: Fuc(a1-2)Gal(b1-4)[Fuc(a1-3)]GlcNAc
# How it was run: as §1
# [19] = target: Fuc(a1-2)Gal(b1-4)[Fuc(a1-3)]GlcNAc(b1-2)Man(a1-3)[Fuc(a1-2)Gal(b1-4)[Fuc(a1-3)]GlcNAc(b1-2)Man(a1-6)]Man(b1-4)GlcNAc(b1-4)GlcNAc
# How it was run: as §1
# [20] = target: Fuc(a1-2)Gal(b1-4)[Fuc(a1-3)]GlcNAc(b1-3)Gal(b1-4)[Fuc(a1-3)]GlcNAc
# How it was run: as §1
# [21] = target: Fuc(a1-2)Gal(b1-4)[Fuc(a1-3)]GlcNAc(b1-3)Gal(b1-4)[Fuc(a1-3)]GlcNAc(b1-3)Gal(b1-4)[Fuc(a1-3)]GlcNAc
# How it was run: as §1
# Fuc(a1-2)Gal6S(b1-4)Glc = target: Fuc(a1-2)Gal6S(b1-4)Glc
# How it was run: as §1
# [22] = target: Fuc(a1-2)Gal6S(b1-4)Glc6S
# How it was run: as §1
# [23] = target: Fuc(a1-2)Gal6S(b1-4)GlcNAc
# How it was run: as §1
# Fuc(a1-2)GlcNAc = target: Fuc(a1-2)GlcNAc
# How it was run: as §1
# Fuc(a1-2)[Gal(a1-3)]Gal = target: Fuc(a1-2)[Gal(a1-3)]Gal
# How it was run: as §1
# [24] = target: Fuc(a1-2)[Gal(a1-3)]Gal(b1-3)GlcNAc
# How it was run: as §1
# [25] = target: Fuc(a1-2)[Gal(a1-3)]Gal(b1-3)GlcNAc(b1-2)Man(a1-3)[Fuc(a1-2)[Gal(a1-3)]Gal(b1-3)GlcNAc(b1-2)Man(a1-6)]Man(b1-4)GlcNAc(b1-4)GlcNAc
# How it was run: as §1
# [26] = target: Fuc(a1-2)[Gal(a1-3)]Gal(b1-4)Glc
# How it was run: as §1
# [27] = target: Fuc(a1-2)[Gal(a1-3)]Gal(b1-4)GlcNAc
# How it was run: as §1
# [28] = target: Fuc(a1-2)[Gal(a1-3)]Gal(b1-4)GlcNAc(b1-2)Man(a1-3)[Fuc(a1-2)[Gal(a1-3)]Gal(b1-4)GlcNAc(b1-2)Man(a1-6)]Man(b1-4)GlcNAc(b1-4)GlcNAc
# How it was run: as §1
# [29] = target: Fuc(a1-2)[Gal(a1-3)]Gal(b1-4)[Fuc(a1-3)]GlcNAc
# How it was run: as §1
# [30] = target: Fuc(a1-2)[Gal(a1-4)]Gal(b1-4)GlcNAc
# How it was run: as §1
# [31] = target: Fuc(a1-2)[GalNAc(a1-3)]Gal
# How it was run: as §1
# [32] = target: Fuc(a1-2)[GalNAc(a1-3)]Gal(b1-3)GalNAc(a1-3)[Fuc(a1-2)]Gal(b1-4)GlcNAc
# How it was run: as §1
# [33] = target: Fuc(a1-2)[GalNAc(a1-3)]Gal(b1-3)GlcNAc
# How it was run: as §1
# [34] = target: Fuc(a1-2)[GalNAc(a1-3)]Gal(b1-3)GlcNAc(b1-2)Man(a1-3)[Fuc(a1-2)[GalNAc(a1-3)]Gal(b1-3)GlcNAc(b1-2)Man(a1-6)]Man(b1-4)GlcNAc(b1-4)GlcNAc
# How it was run: as §1
# [35] = target: Fuc(a1-2)[GalNAc(a1-3)]Gal(b1-4)Glc
# How it was run: as §1
# [36] = target: Fuc(a1-2)[GalNAc(a1-3)]Gal(b1-4)GlcNAc
# How it was run: as §1
binder,measurement,setting,value
B1,glycan array binding signal (z-score),Fuc(a1-2)Gal,-0.176
same,glycan array binding signal (z-score),Fuc(a1-2)Gal(b1-3)GalNAc,-0.181
same,glycan array binding signal (z-score),[1],-0.041
same,glycan array binding signal (z-score),[2],-0.28
same,glycan array binding signal (z-score),[3],0.57
same,glycan array binding signal (z-score),[4],-0.243
same,glycan array binding signal (z-score),[5],-0.266
same,glycan array binding signal (z-score),Fuc(a1-2)Gal(b1-3)GlcNAc,0.087
same,glycan array binding signal (z-score),[6],6.09
same,glycan array binding signal (z-score),[7],-0.354
same,glycan array binding signal (z-score),[8],0.13
same,glycan array binding signal (z-score),[9],-0.021
same,glycan array binding signal (z-score),[10],-0.075
same,glycan array binding signal (z-score),[11],-0.562
same,glycan array binding signal (z-score),[12],-0.641
same,glycan array binding signal (z-score),Fuc(a1-2)Gal(b1-4)Glc,-0.068
same,glycan array binding signal (z-score),Fuc(a1-2)Gal(b1-4)Glc6S,-0.012
same,glycan array binding signal (z-score),Fuc(a1-2)Gal(b1-4)GlcNAc,-0.336
same,glycan array binding signal (z-score),[13],-0.303
same,glycan array binding signal (z-score),[14],-0.112
same,glycan array binding signal (z-score),[15],-0.036
same,glycan array binding signal (z-score),[16],-0.563
same,glycan array binding signal (z-score),[17],-0.341
same,glycan array binding signal (z-score),[18],-0.135
same,glycan array binding signal (z-score),[19],1.72
same,glycan array binding signal (z-score),[20],-0.262
same,glycan array binding signal (z-score),[21],0.05
same,glycan array binding signal (z-score),Fuc(a1-2)Gal6S(b1-4)Glc,0.152
same,glycan array binding signal (z-score),[22],-0.817
same,glycan array binding signal (z-score),[23],-0.064
same,glycan array binding signal (z-score),Fuc(a1-2)GlcNAc,-0.281
same,glycan array binding signal (z-score),Fuc(a1-2)[Gal(a1-3)]Gal,0.129
same,glycan array binding signal (z-score),[24],-0.221
same,glycan array binding signal (z-score),[25],-0.262
same,glycan array binding signal (z-score),[26],-0.44
same,glycan array binding signal (z-score),[27],-0.315
same,glycan array binding signal (z-score),[28],-0.135
same,glycan array binding signal (z-score),[29],0.163
same,glycan array binding signal (z-score),[30],-0.046
same,glycan array binding signal (z-score),[31],0.014
same,glycan array binding signal (z-score),[32],-0.454
same,glycan array binding signal (z-score),[33],1
same,glycan array binding signal (z-score),[34],-0.299
same,glycan array binding signal (z-score),[35],-0.202
same,glycan array binding signal (z-score),[36],-0.052
